Data reported in PubChem BioAssay AID485290 (National Center for Advancing Translational Sciences (NCATS), 2010).
Among all 350,000 compounds or so, about 990 (0.28%) were called active. The shares of active, inactive and inconclusive entries below differ from those in the screen. Calls follow the shape of the dose curve; as a rule, active = well fitted inhibition curve with a large enough effect; inconclusive = small, poorly fitted or top-dose-only effect; inactive = no such curve, though single readings can be large or run the other way. Potencies beside an inconclusive call are fits to weak or partial responses and may not hold up.

Biological target: Tyrosyl-DNA phosphodiesterase 1 (Homo sapiens) (UniProt Q9NUW8)
UniProt Q9NUW8, sequence (Q9NUW8 whole entry, looked up): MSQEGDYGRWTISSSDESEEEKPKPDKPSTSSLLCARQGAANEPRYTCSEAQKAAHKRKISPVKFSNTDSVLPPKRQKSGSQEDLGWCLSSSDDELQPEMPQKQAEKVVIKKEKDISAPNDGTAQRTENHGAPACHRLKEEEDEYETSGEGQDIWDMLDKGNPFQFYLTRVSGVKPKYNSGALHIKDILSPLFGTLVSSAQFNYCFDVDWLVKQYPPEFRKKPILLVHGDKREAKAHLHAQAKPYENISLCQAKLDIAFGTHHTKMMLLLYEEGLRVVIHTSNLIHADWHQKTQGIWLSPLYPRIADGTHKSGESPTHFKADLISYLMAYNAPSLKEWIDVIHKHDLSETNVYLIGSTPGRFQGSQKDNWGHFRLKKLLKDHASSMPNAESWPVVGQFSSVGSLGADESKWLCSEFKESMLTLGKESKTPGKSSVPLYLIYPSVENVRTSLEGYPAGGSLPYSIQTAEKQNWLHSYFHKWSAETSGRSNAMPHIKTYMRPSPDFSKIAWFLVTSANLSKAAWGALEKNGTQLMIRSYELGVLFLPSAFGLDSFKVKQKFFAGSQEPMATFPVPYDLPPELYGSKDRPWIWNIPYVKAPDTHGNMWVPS
Test: qHTS Assay for Inhibitors of Tyrosyl-DNA Phosphodiesterase (TDP1); also: nearly all actives have a fitted effect of over 40% in size
Details: recombinant TDP1, AlphaScreen DNA substrate cleavage; activity change, negative = inhibition: at 130 µM (top of the series) unless noted
Outline: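 Steps: enzyme plus compound, 15 min RT; add biotin/phosphotyrosine-FITC oligonucleotide (15 nM final), react 5 min; add donor/acceptor beads (10 ug/ml final), 10 min; read AlphaScreen. Tdp1 at 1 nM final.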
% is scaled to controls: 0 for no effect and ±100 for the full control effect; potency is read from the fitted curve at half-maximal effect; tags tell the direction and shape of the fitted curve.

| SMILES | activity change, negative = inhibition | Potency |
| --- | --- | --- |
| COC(=O)CNc1cc(S(=O)(=O)N2CCCCC2)ccc1Oc1ccc(C(=O)OC)cc1 | inactive: 12.4% [at 0.0935 µM] | – |
| COc1ccc(Cn2c3nc4ccccc4nc3c3c(=O)n(Cc4ccco4)c(C)nc32)cc1 | – | active: 31.6 µM |
| CCOc1ccccc1NC(=O)COC(=O)C(CC)c1ccccc1 (stereo unspecified) | – | inconclusive: 17.8 µM [inhibitor, partial curve] |
| COc1cc2c(=O)c(S(=O)(=O)c3ccccc3)cn(CC(=O)Nc3ccccc3C)c2cc1OC | inactive: 1.28% | – |
| CCOC(=O)CC(=O)CSc1[nH]c(=O)cc(C)c1C#N | – | inconclusive: 3.98 µM [inhibitor, full curve] |
| CCOC(=O)C1CCCN(C(=O)CSc2nnc3nc(C)cc(C)n23)C1 (stereo unspecified) | – | inconclusive: 56.2 µM [inhibitor, partial curve] |
| Cc1nccn1CC(=O)N/N=C/c1ccc(O)c(O)c1 | – | inconclusive: 11.2 µM [inhibitor, partial curve] |
| COc1cc(OC)c2c(-c3ccccc3)cc(=O)oc2c1C(CC(=O)N1CCN(c2ccccc2)CC1)c1ccc2c(c1)OCO2 (stereo unspecified) | – | inconclusive: 20 µM [inhibitor, full curve] |
| Cc1cccc(OCC(=O)Nc2nc3ccc([N+](=O)[O-])cc3s2)c1 | inactive: 7.14% | – |
| COC(=O)C1CCN(C(=O)COC(=O)c2oc3ccc(OC)cc3c2C)CC1 | inactive: 1.22% | – |
| COc1ccc(NC(=O)c2ccco2)cc1NC(=O)c1ccccc1F | – | inconclusive: 89.1 µM [inhibitor, single point] |
| CSC1=N/C(=C\c2ccc(Br)o2)C(=O)S1 | – | inconclusive: 7.94 µM [inhibitor, full curve] |
| COc1ccc(NC(=O)CSc2nc(O)cc(=O)n2C)cc1 | – | inconclusive: 2.82 µM [inhibitor, full curve] |
| COC(=O)C1CCN(c2cc(=O)n(-c3ccccc3Cl)c(=O)[nH]2)CC1 | – | inconclusive: 2 µM [inhibitor, full curve] |
| C=CCN(CC=C)C(=S)Nc1cc(Cl)ccc1OC | – | inconclusive: 100 µM [inhibitor, single point] |
| CCOC(=O)c1ccccc1NC(=O)COC(=O)CSc1ccccc1 | – | inconclusive: 15.8 µM [inhibitor, full curve] |
| CCN1CCN(c2ccc(S(=O)(=O)N3CCCCC3)cc2NC(=O)/C=C/c2ccc([N+](=O)[O-])cc2)CC1 | inactive: -10.6% [at 0.505 µM] | – |
| O=C(N/N=C/C(Cl)=C/c1ccccc1)c1ccncc1 | – | inconclusive: 39.8 µM [inhibitor, single point] |
| Cc1cccc2c1-c1sc(C(=O)N(C)c3cccc(Cl)c3)cc1CO2 | – | inconclusive: 12.6 µM [inhibitor, partial curve] |
| COc1cccc(NC(=O)Cn2cc(C(=O)c3ccc(C)cc3)c(=O)c3cc(OC)ccc32)c1 | – | inconclusive: 25.1 µM [inhibitor, single point] |
| COc1ccccc1Cn1c(=S)[nH]c2cc(C(=O)NCC3CCCO3)ccc2c1=O (stereo unspecified) | inactive: -1.15% | – |
| CCN(CC)c1nc(C#N)cc(-c2ccc(OC)cc2)n1 | – | inconclusive: 14.1 µM [inhibitor, full curve] |
| Cc1csc2ncc(C(=O)NCc3ccco3)c(=O)n12 | – | active: 44.7 µM |

| SMILES | activity change, negative = inhibition | Potency |
| --- | --- | --- |
| Cc1ccc(S(=O)(=O)C(CNC(=O)COc2ccccc2)c2cccs2)cc1 (stereo unspecified) | – | inconclusive: 1.41 µM [inhibitor, partial curve] |
| Cc1ccc(-c2nn(C)c(=O)c3ccccc23)cc1CNC(=O)CSc1nc2ccccc2o1 | inactive: 3.87% | – |
| CCOc1ccc(NC(=O)CSc2oc(-c3cccs3)nc2S(=O)(=O)c2ccc(C)cc2)cc1 | inactive: 0% | – |
| O=C(N/N=C/c1cccc(Br)c1)c1ccc(Br)cc1 | – | inconclusive: 50.1 µM [inhibitor, partial curve] |
| CCC(C)/C=C/C1=CC2=C(Cl)C(=O)C3(C)OC(=O)C(C(=O)C(C)C(C)O)C3C2=CO1 (stereo unspecified) | – | inconclusive: 63.1 µM [inhibitor, single point] |
| O=C(O)COn1c(-c2ccccc2)nc2ccc([N+](=O)[O-])cc21 | – | active: 25.1 µM |
| Cc1nc(N(C)Cc2ccccc2)c2c(C)c(C)sc2n1 | inactive: 10.6% | – |
| Cc1ccc(NC(=O)[C@@H]2CCCN2S(=O)(=O)c2ccc(Cl)cc2)cc1 | inactive: 0.182% | – |
| COc1ccc(-c2nc3ccccc3c(=O)n2Cc2ccc(CNC(=O)CO)cc2)cc1COc1ccc(NC(C)=O)cc1 | – | active: 79.4 µM |
| Cc1cccc(NC(=O)CSc2nnc(-c3ccncc3)n2CC2CCCO2)c1 (stereo unspecified) | – | inconclusive: 89.1 µM [inhibitor, single point] |
| CC(C(=O)N1CCOCC1)N1C(=O)c2cccc3cccc(c23)C1=O (stereo unspecified) | inactive: 8.11% | – |
| CCn1cc(CN2CCCC(C(=O)Nc3cccc(-n4cccn4)c3)C2)c(C)n1 (stereo unspecified) | inactive: 1.9% [at 56.1 µM] | – |
| CC1CCC/C(=N\Nc2ccc(Cl)c(C(=O)O)c2)C1 (stereo unspecified) | – | inconclusive: 22.4 µM [inhibitor, partial curve] |
| S=c1[nH]nc(-c2cccnc2)n1/N=C/C=C/c1ccco1 | – | active: 39.8 µM |
| O=C(CCCc1ccccc1)c1ccc2c(c1)OCCO2 | – | inconclusive: 35.5 µM [inhibitor, partial curve, poor fit] |
| O=C(O)C(Cc1ccccc1)N1C(=O)/C(=C/c2cccnc2)SC1=S (stereo unspecified) | inactive: -8.22% | – |
| O=C(CCNC(=O)c1ccccc1Cl)Nc1nc(-c2ccc3ccccc3c2)cs1 | inactive: 3.35% | – |
| Cc1cccc(CNc2nc(-c3ccoc3)nc3ccccc23)c1 | – | inconclusive: 14.1 µM [inhibitor, partial curve] |
| COCCN(C(=O)COC(=O)/C=C/c1ccc2c(c1)OCO2)c1c(N)n(Cc2ccccc2)c(=O)[nH]c1=O | inactive: 0.262% | – |
| COc1ccc(Br)cc1/C=C(\C(=O)O)c1ccc(S(=O)(=O)N2CCCC2)s1 | – | inconclusive: 50.1 µM [inhibitor, partial curve] |
| CN(N)C(=S)NCc1ccccc1 | inactive: 4.9% | – |
| O=C(CCc1nc2ccccc2s1)OCc1ccccc1F | – | inconclusive: 14.1 µM [inhibitor, full curve] |
| COc1ccccc1CNC(=O)c1cc2c(-c3ccc(Cl)cc3)nn(C)c2s1 | – | inconclusive: 44.7 µM [inhibitor, single point] |
